Measurements published in PubChem BioAssay AID652104 (National Center for Advancing Translational Sciences (NCATS), 2013).
Out of some 410,000 compounds screened, about 7,200 (1.8%) were called active. Inconclusive means that the source gave no clear call. Such entries were picked first, then a sample of the others. Calls come from the whole dose curve; as a rule, active = well fitted activation curve with a large enough effect; inconclusive = small, poorly fitted or top-dose-only effect, or another doubt; inactive = no such curve, though single readings can be large or run the other way. Potencies of inconclusive entries are left out as doubtful fits.

test: qHTS of TDP-43 Inhibitors; conditions: TDP-43 expressing yeast growth rescue, BacTiter-Glo, 24 h; growth rescue (activation): at 46.1 µM (top of the series) unless noted; note: nearly all actives have a fitted effect of over 50% in size; for growth rescue (activation): % of control where 0% means no effect
Procedure, shortened: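 Luminescence from BacTiter-Glo reports growth of TDP-43-expressing yeast after 24 hr at 30 deg C with compound. Cells were raffinose-pregrown to mid-log, then seeded in galactose medium at OD600=0.02.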
Potency is the fitted concentration of half-maximal effect; tags give direction and shape of the fitted curve.

Structure (SMILES) | Potency | growth rescue (activation)
O=C(N[C@H]1c2ccccc2C[C@H]1O)[C@H]1O[C@@H](n2ccc(=O)[nH]c2=O)[C@H](O)[C@@H]1O | inconclusive [activator, full curve, poor fit] | –
Cc1ccccc1OCCn1c(=S)[nH]c2ccccc21 | inconclusive [activator, single point] | –
COc1ccc(S(=O)(=O)N(CC(=O)NCc2ccc(C)cc2)c2ccc(Cl)cc2)cc1 | inactive | –
COCCNc1nc(=S)[nH]c2cc(OC)c(OC)cc12 | inactive | –
Cc1ccc(CN2CCN(CC(=O)NCc3ccccc3Cl)C2=O)cc1 | inconclusive [activator, full curve] | –
CC(=O)N1CC(c2ccccc2)C(c2ccc(Cl)cc2)=N1 (stereo not given) | active: 11.2 µM | –
Cc1cccc(Nc2c3c(nc4nncn24)CCC3)c1 | active: 17.8 µM | –
CCCCCOC(=O)c1ccc(NC(=O)c2cccc(NC(=O)c3ccccc3C(=O)O)c2)cc1 | inconclusive [activator, partial curve, poor fit] | –
COc1cccc(N/C(SCc2ccccc2C)=C(/C#N)C(=O)NCc2cccs2)c1 | inactive | –
CC1CCN(c2nc(N(C)c3ccccc3)nc(N)c2[N+](=O)[O-])CC1 | inconclusive [activator, single point] | –
CCOc1ccc(N2C(=O)N(Cc3ccc(C)cc3C)c3ccccc3S2(=O)=O)cc1 | – | inactive: 21.4% [at 9.22 µM]
COc1ccccc1/C=C/C(=O)c1ccccc1 | inconclusive [activator, partial curve] | –
CC(C)Cc1ccc(C(C)/C=C2/CCC(CN3CCCCC3)C2=O)cc1 (stereo not given) | inconclusive [activator, single point] | –
Cc1nc2c(-c3ccc(F)cc3)c(C)nn2c(C)c1CCC(=O)NCc1ccc(Cl)cc1 | inactive | –
COc1ccccc1N1CCN(C(=O)Cn2c(=O)nc(-c3ccccc3)c3cc(Cl)ccc32)CC1 | inactive | –
Cc1ccc2nc(C)cc(C(=O)OCC(=O)c3ccc(Cl)c([N+](=O)[O-])c3)c2c1 | inconclusive [activator, partial curve, poor fit] | –
Cn1cc(-c2nnc(-c3ccccc3)o2)c2ccccc21 | inconclusive [activator, partial curve] | –
CC(C)(C)c1ccc(C(=O)NCC(=O)OCN2C(=O)c3ccccc3C2=O)cc1 | inconclusive [activator, single point] | –
COCCNC(=O)CN1N=C(c2ccc(C)cc2)CCC1=O | inconclusive [activator, single point] | –
CCN1CCN(C(CNC(=O)c2ccc3c(c2)OCO3)c2cccnc2)CC1 (stereo not given) | inconclusive [activator, full curve, poor fit] | –
CCN(CC)CCCN(Cc1cc2cc3c(cc2[nH]c1=O)OCO3)C(=S)Nc1ccccc1 | inactive | –
CCCCN(C)CCNC(=O)c1cc2c(-c3cccc(OC)c3)nn(C)c2s1 | inactive | –
O=S1(=O)N[C@@H](Cc2ccccc2)COc2cccc(N3CCSCC3)c21 | inconclusive [activator, full curve, poor fit] | –

Structure (SMILES) | Potency | growth rescue (activation)
COc1ccc(NC(=O)c2c(-c3ccccc3)c(-c3ccccc3)nn(C)c2=O)c(OC)c1 | inactive | –
CCOC(=O)c1cnc(SCC(=O)Nc2ccccc2C(=O)OC)nc1N | active: 22.4 µM | –
COc1ccc(OCC(=O)Nc2ccc3c(c2)nc(CCN2CCN(C)CC2)n3C)cc1 | inconclusive [activator, single point] | –
COc1cccc(CNC(=O)c2ccc(C)c(S(=O)(=O)N3CCCCC3)c2)c1 | inconclusive [activator, partial curve] | –
Cc1cc(Cl)ccc1OCc1nc(-c2ccncc2)no1 | active: 20 µM | –
COc1cc(C(=O)N2CCN(c3ccccc3)CC2)c2ccccc2n1 | inconclusive [activator, single point] | –
Cc1ccc(C(=O)OCC(=O)NCCC2=CCCCC2)s1 | inconclusive [activator, single point] | –
O=[N+]([O-])c1ccccc1S(=O)(=O)NCCSc1ccccc1 | inconclusive [activator, single point] | –
COC(=O)c1ccc(/C=C(\C#N)C(=O)NC(C)c2ccccc2)cc1 (stereo not given) | active: 12.6 µM | –
Cc1cccc(C)c1NC(=O)C1CCCN1S(=O)(=O)c1ccc(-c2ccc(=O)[nH]n2)s1 (stereo not given) | inconclusive [activator, single point] | –
COc1ccccc1NC(=O)Cc1coc2cc(C)ccc12 | active: 11.2 µM | –
CNC(=O)COC(=O)/C=C/c1nc2ccccc2s1 | active: 15.8 µM | –
CCOC(=O)c1c(NC(=O)OC)sc(C(=O)N(CC)CC)c1C | inactive | –
O=C(Oc1cncc(Cl)c1)c1ccco1 | inconclusive [activator, single point] | –
CCOC(=O)c1ccc(NC(=O)CCc2c(C)nc3nc[nH]n3c2=O)cc1 | inactive | –
COc1cc(NC(=O)c2cc([N+](=O)[O-])ccc2Br)ccc1NC(=O)c1ccco1 | active: 10 µM | –
CCOc1ccc(Cl)cc1-c1cc(C(=O)Nc2cc(OC)c(OC)c(OC)c2)[nH]n1 | inconclusive [activator, partial curve, poor fit] | –
COc1ccc(C(=O)Nc2ccccc2C(=O)NC(Cc2ccc(O)cc2)C(=O)NNC(=O)c2ccccc2Cl)cc1 (stereo not given) | inconclusive [activator, full curve, poor fit] | –
O=C(c1ccccc1Cl)n1nc(-c2cccnc2)nc1NCc1ccc(F)cc1 | inconclusive [activator, partial curve] | –
CCOC(=O)c1c(C)[nH]c(C(=O)/C(C#N)=C/c2ccc(OCC)cc2)c1C | active: 15.8 µM | –
CCOC(=O)Cc1csc(NC(=O)C(C)Oc2ccc3c(C)cc(=O)oc3c2)n1 (stereo not given) | inconclusive [activator, single point] | –
COC(=O)c1scc(-c2ccccc2)c1S(=O)(=O)Nc1cccc(C)c1C | inconclusive [activator, single point] | –
